Laboratory results published in publication PMC4336329 (PLoS ONE, 2015).
In all, about 310,000 compounds went through this assay and about 14,000 (4.5%) showed an effect of 50% or more. Effects have a minus sign here. Some of the results follow.

molecular target: human ether-à-go-go-related gene (hERG) potassium channel (human, UniProt Q12809); test: primary screen, population patch clamp on CHO cells stably expressing hERG
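Also: peak tail current of the secondary pulse compared with the same well before compound.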

human ether-à-go-go-related gene (hERG) potassium channel, sequence (Q12809 whole entry, looked up): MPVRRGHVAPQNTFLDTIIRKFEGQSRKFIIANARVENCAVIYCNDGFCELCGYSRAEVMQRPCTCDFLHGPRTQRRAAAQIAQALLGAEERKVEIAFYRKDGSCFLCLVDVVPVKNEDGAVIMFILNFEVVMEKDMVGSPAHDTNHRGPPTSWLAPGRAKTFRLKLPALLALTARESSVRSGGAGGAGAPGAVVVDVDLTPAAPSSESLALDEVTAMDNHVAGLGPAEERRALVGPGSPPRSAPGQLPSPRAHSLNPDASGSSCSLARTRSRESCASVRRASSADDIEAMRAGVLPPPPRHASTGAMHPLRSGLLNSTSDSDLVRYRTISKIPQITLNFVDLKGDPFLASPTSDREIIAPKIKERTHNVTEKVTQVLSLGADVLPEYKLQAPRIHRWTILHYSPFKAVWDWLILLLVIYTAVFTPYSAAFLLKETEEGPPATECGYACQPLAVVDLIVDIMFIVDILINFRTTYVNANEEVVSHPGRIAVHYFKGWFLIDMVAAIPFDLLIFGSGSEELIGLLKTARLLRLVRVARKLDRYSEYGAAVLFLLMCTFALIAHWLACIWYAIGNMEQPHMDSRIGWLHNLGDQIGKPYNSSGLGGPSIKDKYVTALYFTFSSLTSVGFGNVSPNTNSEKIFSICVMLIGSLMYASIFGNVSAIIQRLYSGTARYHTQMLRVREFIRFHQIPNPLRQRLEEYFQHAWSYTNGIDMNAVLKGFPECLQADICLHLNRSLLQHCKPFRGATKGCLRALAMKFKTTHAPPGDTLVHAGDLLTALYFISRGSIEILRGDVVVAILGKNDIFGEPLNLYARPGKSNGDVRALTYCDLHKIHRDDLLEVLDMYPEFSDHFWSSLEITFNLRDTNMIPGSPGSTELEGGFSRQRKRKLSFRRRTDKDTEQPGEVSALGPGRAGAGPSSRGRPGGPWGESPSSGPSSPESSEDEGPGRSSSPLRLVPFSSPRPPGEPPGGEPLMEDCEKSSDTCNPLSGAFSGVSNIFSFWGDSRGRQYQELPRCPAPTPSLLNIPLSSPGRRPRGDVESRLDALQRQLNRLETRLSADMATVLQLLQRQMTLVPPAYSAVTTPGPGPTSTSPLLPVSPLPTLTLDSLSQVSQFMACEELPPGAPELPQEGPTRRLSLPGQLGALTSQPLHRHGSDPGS

SMILES	hERG current change (%, negative = inhibition) at 10uM
C=CCn1c(NCCc2ccccc2)nc2c1c(=O)n(C)c(=O)n2C	-1.17%
N#CCCN(C(=O)COC(=O)c1ccc(CNS(=O)(=O)c2ccc(F)c(Cl)c2)cc1)c1ccc(F)cc1	-5.28%
CC(=O)N1CCCc2cc(S(=O)(=O)N3CCC(C)CC3)ccc21	-12.9%
O=C1c2ccccc2C(=O)N1CCSc1nnc(-c2ccco2)n1Cc1ccccc1	-72.8%
CCOC(=O)c1c(SCc2ccccc2)n[nH]c1N	13.3%
C=C(C)[C@@H]1C2C(=O)O[C@H]1[C@H]1OC(=O)[C@@]34OC3C[C@]2(O)[C@@]14C (some centres unmarked)	10.7%
C/C(=C\C(=O)c1ccc(F)cc1)NCc1ccc2c(c1)OCO2	0.418%
COc1cccc(-c2ccc(-c3noc(-c4cccs4)n3)c(OC)n2)c1	8.39%
CCCCNC(=S)NNC(=O)c1csc(CC)c1	6.74%
CCCOC(=O)CSC1=C(C#N)C(c2ccccc2Cl)CC(=O)N1 (centres unmarked)	-6.15%
COc1ccc(N2CCN(C(=O)c3ccc(C)c(Cl)c3)CC2)cc1	-29.3%
CCOC(=O)c1ccc(NC(=S)N(CCN2CCCCCC2)Cc2ccco2)cc1	-78.3%
CCOc1ccc(C2C3=C(CCCC3=O)Nc3nc(C(F)(F)F)nn32)cc1OC (centres unmarked)	-3.02%
CC1(C)Cc2c(cnn2-c2ccccc2)C(=O)/C1=N\NC(=O)c1ccccc1	12.6%
CCN(CC)C(=O)Cn1cc(C(=O)C(=O)N2CCN(Cc3ccccc3)CC2)c2ccccc21	8.19%
Cc1ccc(C)c(/C(O)=C2\C(=O)C(=O)N(CCCn3ccnc3)C2c2ccncc2)c1 (centres unmarked)	16.9%
C/C(=N\NC(=O)c1ccccc1)c1ccc2c(c1)OCO2	14.2%
O=C(COC(=O)CNC(=O)c1ccc(Br)cc1)Nc1nnc(-c2ccccc2)o1	3.05%
CCCOc1ccc(C2C(=O)N(C3CCCCC3)CC(=O)N2CCC)cc1OC (centres unmarked)	-11.5%
O=C(COc1ccc(-c2ccccc2)cc1)N/N=C/c1cc(O)ccc1Br	2.64%
O=C(O)CC1SC(=Nc2cccc(O)c2)NC1=O (centres unmarked)	3.87%
CCOc1ccc(NC(=O)CCn2c(=S)oc3ccccc32)cc1	21.3%

SMILES	hERG current change (%, negative = inhibition) at 10uM
NC(=O)CC(NC(=O)Cc1ccc(Br)cc1)c1ccc(NC2CCCCCC2)c([N+](=O)[O-])c1 (centres unmarked)	2.48%
CCn1ncc(Cl)c1C(=O)NC(=S)Nc1ccccc1Br	23.9%
CN(C)c1cncc(C(=O)O)c1	15.5%
OCCC1CN(Cc2cc(F)ccc2F)CCN1CCCc1ccccc1 (centres unmarked)	-70.3%
CN(CCC#N)S(=O)(=O)c1cc2c3c(c1)CCN3C(=O)CC2	22.1%
CCCCC/C=N\NC(=O)Cc1ccc([N+](=O)[O-])cc1	0.637%
CC(=O)Nc1ccc(-c2csc(Nc3ncccn3)n2)cc1	-14.4%
Cc1cc(C)c2[nH]c(O)c(N=NC(=O)c3cc4c(s3)CCCC4)c2c1	21.7%
CCCc1cc(=O)[nH]c(-n2[nH]c3c(c2=O)CCCC3)n1	13.9%
CSc1nc(NC(C)(C)C)nc(Oc2ccc(=O)n(C)n2)n1	-22.2%
CCOC(=O)C1CCCN(S(=O)(=O)c2cnc(Cl)c(Br)c2)C1 (centres unmarked)	5.34%
Cc1ccc(NC(=O)c2cc(NC(=O)C3CC=CCC3C(=O)O)ccc2N2CCOCC2)cc1 (centres unmarked)	5.96%
CCCCc1ccc(NC(=O)CSc2nc(=O)n(CCN(C)C)c3c2CCC3)cc1	-56.4%
Fc1cccc(NC(=S)N2CCCC2)c1	6.29%
CC(C)CNC(=S)N(CCCN(C)C)Cc1cc2cc3c(cc2[nH]c1=O)OCCO3	12%
CC1CCCC(C)N1C(=O)COC(=O)c1cc([N+](=O)[O-])ccc1N1CCOCC1 (centres unmarked)	-24.9%
O=C(NCCSCc1c(F)cccc1Cl)Nc1ccccc1	-1.79%
COc1cc(C)ccc1OCC(=O)Nc1ccc2c(c1)OCO2	-1.08%
O=C(CSc1nc2ncc(Br)cc2[nH]1)Nc1ccccc1-c1ccccc1	24.5%
Cc1nnc(N/N=C/c2cccc(C(F)(F)F)c2)n1N	3.42%
O=C(CCCC(=O)N(CC(=O)NC1CCCCC1)Cc1ccc2c(c1)OCO2)Nc1ccccn1	-54.3%
COc1ccc(CC(NC(C)=O)C(=O)NC2CCN(S(=O)(=O)c3ccccc3)CC2)c(OC)c1 (centres unmarked)	20.5%
